Laboratory results: publication PMC11399591
Results are given in words; binding and its absence hold for the method and conditions named. Binding seen in cells or lysates may run through a third protein. Some binding calls cover weakened binding; strength is not graded here.

The chains behind the UniProt entries cited, without tags or fusion partners. Where a name states a change or a piece, a line headed by the entry shows the natural chain unless it says otherwise. A line that says so, or that is headed by a name, gives the form on record, which may keep a tag or linker. Residues count along the entry.
UniProt Q96J86, residues 30-154: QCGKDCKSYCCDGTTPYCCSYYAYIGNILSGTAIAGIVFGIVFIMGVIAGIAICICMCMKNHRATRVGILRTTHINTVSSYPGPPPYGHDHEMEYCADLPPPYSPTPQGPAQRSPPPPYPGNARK
UniProt O00308: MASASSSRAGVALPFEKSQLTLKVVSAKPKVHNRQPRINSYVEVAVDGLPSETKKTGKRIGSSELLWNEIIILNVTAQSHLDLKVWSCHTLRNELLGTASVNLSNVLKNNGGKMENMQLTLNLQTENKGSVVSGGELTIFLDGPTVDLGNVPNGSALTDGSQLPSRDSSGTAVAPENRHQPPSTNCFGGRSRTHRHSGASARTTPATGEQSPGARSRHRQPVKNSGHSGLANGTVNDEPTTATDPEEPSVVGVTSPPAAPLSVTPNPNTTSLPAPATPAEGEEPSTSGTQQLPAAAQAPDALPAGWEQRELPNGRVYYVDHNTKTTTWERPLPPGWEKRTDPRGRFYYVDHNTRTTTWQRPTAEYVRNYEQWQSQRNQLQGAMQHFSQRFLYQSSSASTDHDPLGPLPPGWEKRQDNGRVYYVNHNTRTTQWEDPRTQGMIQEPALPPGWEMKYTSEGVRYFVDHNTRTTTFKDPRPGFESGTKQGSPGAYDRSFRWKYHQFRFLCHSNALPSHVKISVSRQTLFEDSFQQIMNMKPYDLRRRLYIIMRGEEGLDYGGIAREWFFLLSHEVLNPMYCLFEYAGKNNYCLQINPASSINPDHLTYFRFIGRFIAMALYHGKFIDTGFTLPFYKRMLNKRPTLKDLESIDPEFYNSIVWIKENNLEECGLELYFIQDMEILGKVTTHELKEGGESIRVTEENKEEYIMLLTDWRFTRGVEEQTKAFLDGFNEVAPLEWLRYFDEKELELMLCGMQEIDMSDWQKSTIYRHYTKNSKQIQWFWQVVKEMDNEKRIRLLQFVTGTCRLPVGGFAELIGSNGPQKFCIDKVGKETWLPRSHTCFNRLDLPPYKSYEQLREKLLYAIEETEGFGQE
UniProt Q9HAU4: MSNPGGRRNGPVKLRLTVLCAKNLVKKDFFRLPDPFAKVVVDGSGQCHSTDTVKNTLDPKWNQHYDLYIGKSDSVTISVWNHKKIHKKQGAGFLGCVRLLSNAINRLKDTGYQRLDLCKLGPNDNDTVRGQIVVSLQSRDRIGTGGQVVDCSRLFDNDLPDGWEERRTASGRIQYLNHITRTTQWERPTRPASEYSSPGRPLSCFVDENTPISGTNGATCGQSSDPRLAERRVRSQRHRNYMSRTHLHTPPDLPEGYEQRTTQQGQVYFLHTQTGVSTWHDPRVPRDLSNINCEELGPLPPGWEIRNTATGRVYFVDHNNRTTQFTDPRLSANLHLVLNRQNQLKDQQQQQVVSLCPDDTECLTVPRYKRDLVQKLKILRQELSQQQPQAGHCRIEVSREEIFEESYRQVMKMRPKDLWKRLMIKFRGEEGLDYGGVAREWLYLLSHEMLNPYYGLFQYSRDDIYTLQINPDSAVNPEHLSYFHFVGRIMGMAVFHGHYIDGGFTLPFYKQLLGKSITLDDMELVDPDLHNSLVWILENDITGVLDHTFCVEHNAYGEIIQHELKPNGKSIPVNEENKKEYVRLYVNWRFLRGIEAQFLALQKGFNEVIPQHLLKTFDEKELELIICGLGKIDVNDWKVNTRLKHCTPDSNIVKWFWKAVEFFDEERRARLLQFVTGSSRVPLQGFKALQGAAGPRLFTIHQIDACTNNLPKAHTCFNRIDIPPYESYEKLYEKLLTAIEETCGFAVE
Flag-SMURF1-CA (catalytically inactive, C699A) (Q9HCE7, form named): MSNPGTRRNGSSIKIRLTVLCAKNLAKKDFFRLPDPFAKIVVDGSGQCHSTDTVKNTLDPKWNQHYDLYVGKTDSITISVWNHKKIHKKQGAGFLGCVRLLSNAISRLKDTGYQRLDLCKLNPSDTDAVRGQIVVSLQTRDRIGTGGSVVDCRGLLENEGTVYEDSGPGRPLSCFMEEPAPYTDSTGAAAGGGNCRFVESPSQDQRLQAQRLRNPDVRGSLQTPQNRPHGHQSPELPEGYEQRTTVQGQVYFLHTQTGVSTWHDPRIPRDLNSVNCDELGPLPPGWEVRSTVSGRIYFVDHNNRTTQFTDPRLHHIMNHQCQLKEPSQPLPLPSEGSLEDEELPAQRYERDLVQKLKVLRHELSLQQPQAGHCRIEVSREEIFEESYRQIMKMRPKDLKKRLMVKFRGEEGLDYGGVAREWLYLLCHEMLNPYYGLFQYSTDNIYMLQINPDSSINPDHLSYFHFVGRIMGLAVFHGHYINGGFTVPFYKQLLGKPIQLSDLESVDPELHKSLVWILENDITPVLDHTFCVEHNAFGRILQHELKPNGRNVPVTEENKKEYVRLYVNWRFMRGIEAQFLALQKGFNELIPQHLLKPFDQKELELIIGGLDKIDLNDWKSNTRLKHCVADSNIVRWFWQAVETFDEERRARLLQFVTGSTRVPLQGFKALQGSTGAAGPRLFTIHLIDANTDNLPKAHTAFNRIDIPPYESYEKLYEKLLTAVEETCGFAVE
UniProt Q8IZ07: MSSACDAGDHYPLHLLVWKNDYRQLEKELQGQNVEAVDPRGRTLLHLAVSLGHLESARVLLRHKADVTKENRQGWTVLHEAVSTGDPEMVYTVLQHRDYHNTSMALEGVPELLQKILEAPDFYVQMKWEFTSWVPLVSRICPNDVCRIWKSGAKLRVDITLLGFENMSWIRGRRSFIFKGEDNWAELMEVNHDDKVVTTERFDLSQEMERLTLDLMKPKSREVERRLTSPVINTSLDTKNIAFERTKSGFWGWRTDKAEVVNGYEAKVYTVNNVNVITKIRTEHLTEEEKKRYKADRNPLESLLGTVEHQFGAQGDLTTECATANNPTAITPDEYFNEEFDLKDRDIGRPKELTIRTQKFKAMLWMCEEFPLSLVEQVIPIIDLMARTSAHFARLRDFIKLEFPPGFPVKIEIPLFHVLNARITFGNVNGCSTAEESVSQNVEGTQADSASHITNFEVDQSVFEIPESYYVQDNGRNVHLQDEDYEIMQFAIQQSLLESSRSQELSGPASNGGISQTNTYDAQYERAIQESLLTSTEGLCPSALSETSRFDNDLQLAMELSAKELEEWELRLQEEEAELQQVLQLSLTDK

Tests used:
[1] = biological target: endogenous CYYR1 (human (endogenous in MDA-MB-468)) (UniProt Q96J86); assay: co-IP; endogenous proteins in MDA-MB-468 cell lysate; IP with anti-CYYR1 antibody (IgG as control), Western blot; the antibody of the IP in Fig. S6B is not told
GFP-CYYR1 = GFP-CYYR1 (UniProt Q96J86); assay: co-IP; HEK293 transfected with GFP, GFP-CYYR1 or GFP-CYYR1-K154R; lysate on GFP-Trap affinity resin; Western blot for the co-purified proteins
[2] = biological target: Flag-WWP2-CA (catalytically inactive, C838A) (UniProt O00308); assay: co-IP; HEK293 co-transfected with HA-CYYR1 and Flag-tagged E3s or E3 domains; lysis in TNMG buffer (20 mM Tris-HCl pH 8, 150 mM NaCl, 5 mM MgCl2, 0.5% NP-40, 10% glycerol); IP with anti-Flag overnight at 4 °C, protein G Sepharose; Western blot
[3] = biological target: Flag-SMURF2-CA (catalytically inactive, C716A) (UniProt Q9HAU4); assay: as above
[4] = biological target: Flag-WWP1-CA (catalytically inactive, C890A) (human) (UniProt Q9H0M0); assay: as above
[5] = biological target: Flag-SMURF1-CA (catalytically inactive, C699A) (UniProt Q9HCE7); assay: as above

binding [1]	binding (GFP-CYYR1)	binding [2]	binding [3]	binding [4]	binding [5]	Substance
binds	binds	–	–	–	–	endogenous ANKRD13A (from UniProt Q8IZ07 1-590)
–	–	binds	no binding	binds	no binding	HA-CYYR1 (from UniProt Q96J86 30-154)
